The labels stand for the following.
B1: LINE1-full (parent)
chain: UACGUAGGUGGUUUUCCCCUGAUAGUGCUAAGGGGGCCUGGAAGUUUGGACUGGGCAGAGCUCAACACAGCGUGGCAAAGUGGCUGUGGCUAGACUGCCUCUCUGGAUUCCUCGUCACUCAGCAGGGCAUCUCUGAGAGAAAUGCC

Read counts are not given, so values of variants with three or more changes are uncertain.

In this data set the parent is B1. Kind of data set: self-cleavage, relative activity (ratio to wild type); higher = more cleavage; in vitro, sequencing; the parent is a self-cleaving ribozyme.
Consider UACGUAGGUGGUUUUCCCCUGAUAGUGCUAAGGGGGCCUGGAGGUUUGGACUGGGCAGAGCUCAACACAGCGUGGCAAAGUGGCUGUGGCUAGACAGCCUCUCUGGAUUCCUCGUCGCUCAACAGGGCAUCUCUGAGAGAAAUGCC, for which the self-cleavage worked out at 0.1.

Consider UACGUAGGUGGUUUUCCCCUGAUAGUGCUAAGGGGGCCUGGAGGUUUGGACUGGGCAGAGCUCAACACAGCGUGGCAAAGUGGCUGUGGCUAGACUGCCUCUCUGGAUACCUCGUCACUCAGCAGGGCGUCUCUGAGAGAAAUGCC, for which the self-cleavage is 1.17. As to UACGUAGGUGGUUUUCCCCUGAUAGUGCUAAGGGGGCCUGGAGGUUUGGACUGGGCAGAGCUCAACACAGCGUGGCAAAGAGGCUGUGGCUAGGCUGCCACUCUGGAUUCCUCAUCACUCAGCAGGGCAUCUCUGAGAGAAAUGCC, the self-cleavage came to 0.2. As for UACGUAGGUGGUUUUCCCCUGAUAGUGCUAAGGGGGCCUGGAGGUUAGGACUGGGCAGAGCUCAACACAGCGUGGCAAAGUGGCUGUGGCUAGACUGCCUCUCUGGAUUCCUCGUCACUCAGCAGGGCAUCUCUGGGAGGAAUGCC, the self-cleavage is 0.

As for UACGUAGGUGGUUUUCCCCUGAUAGUGCUAAGGGGGCCUGGAGGUUAGGACUGGGCAGAGCUCAACACAGCGUGGCAAAGUGGCGGUGGCUAGACUGCCUCUCUGGAUUCCUCGUCACUCAGCAGGGCAUCUCUGAGAGAAAUGCC, the self-cleavage is 0.2. On to UACGUAGGUGGUUUUCCCCUGAUAGUGCUAAGGGGGCCUGGAGGUUAGGACUGGGCAGAGCUCAACACGGCGUGGCAAAGUGGCUGUGGCUAGACUGCCACUCUGGAUUCCUCGUCACUCAGCAGGGCAUCUCUGAGAGAAAUGCC, for which the self-cleavage is 0.08. For the variant UACGUAGGUGGUUUUCCCCUGAUAGUGCUAAGGGGGCCUGGAGGGUUGGACUGGGCAGAGCUCGACACAGCGUGGCAAAGUGGCUGUAGCUAGACUGCCUCUCUGGAUUCCUCGUCGCUCAGCAGGGCAUCUCUGAGAGAAAUGCC, the self-cleavage stood at 0. The result for UACGUAGGUGGUUUUCCCCUGAUAGUGCUAAGGGGGCCUGGAGGUUUGGACUGGGCAGAGCUCAACACAGCGUGGCAAAGUGGCUGUGGCUAGACUGCCUCUCUGGAUUCCCCGUCACUCAGCAGGGCAUCUCUGGGAGAAAUGCC reads 0.63; that for UACGUAGGUGGUUUUCCCCUGAUAGUGCUAAGGGGGCCUGGAGGUUUGGACAGGGCAGUGCUCGACACAGCGUGGCAAAGUGGCUGUGGCUAGACUGCCUCUCUGGAUUCCUCGUCACUCAGCAGGGCAUCUCUGAGAGAAAUGCC, 0.17. On to UACGUAGGUGGUUUUCCCCUGAUAGUGCUAAGGGGGCCUGGAGGUUUGGACCGGGCAGAGCUCAACACAGCGUGGCAAAGUGGCUGUGGCUAGACUGCCUCUCUGGAUUCCUCGUCACUCAGCAGGGCAUCUCUGAGAGAAACGCC, for which the self-cleavage is 0.92. Take UACGUAGGUGGUUUUCCCCUGAUAGUGCUAAGGGGGCCUGGAGGUCUGGACUGGGCAGAGCUCAACACAGCGUGGCAAAGUGGCAGUGGCUAGACUGCCUCUCUGGAUUCCUCGUCACUCAGCAGGGCAUCUCUGAGAUAAAUGCC: the self-cleavage came out at 0.37. With UACGUAGGUGGUUUUCCCCUGAUAGUGCUAAGGGGGCCUGGAGGUUCGGACUAGGCAGAGCUCAACACAGCGUGGCAAAGUGGCUGUGGCUAGACUGCCUCUCUGGAUUCCUCGUCACUCAGCAGGGCAUCUCUGGGAGAAAUGCC, the self-cleavage is 1.45.

With UACGUAGGUGGUUUUCCCCUGAUAGUGCUAAGGGGGCCUGGAGGUUUGGACUGGGCAGAGCUCAACACAGCGUGGCAAAGUGGCCGUGGCUAGACUGCCUCUCUGGAUUCCUCGCCACUCAGCAGGGCAUCUCUGAGAGAAAUGCC, the self-cleavage amounted to 0. For UACGUAGGUGGUUUUCCCCUGAUAGUGCUAAGGGGGCCUGGAGGUUUGGACUGGGCAGAGCUCAACACAGCGUGGCAAAGUGGCUGAGGCUAGACUGCCUCUCUGGAUUCCUCGUCACUCAGCAGGGCAUCUCUGAGAGAAAGGCC, the self-cleavage stood at 0. For the variant UACGUAGGUGGUUUUCCCCUGAUAGUGCUAAGGGGGCCUGGAGGUCUGGACUGGGCAGAGCUCAACACAGCGUGGCAAAGUGGCUGUGGCUAGACUGCCUCUCUGGAUCCCUCGUCACUCAGCAGGGCAUCUCUGAGAGAAAUGCC, the self-cleavage was 0.59. For UACGUAGGUGGUUUUCCCCUGAUAGUGCUAAGGGGGCCUGGAGGUUUGGACUGGGCAGAGCUCAACACAGCGUGGCAAAGUGGCUGUGGCUAGACUGCCUCCCUGGAUUCCUCGUCACUCAGCAGGGCAUCUCCGAGAGAAAUGCC, the self-cleavage was found to be 1.7.

With UACGUAGGUGGUUUUCCCCUGAUAGUGCUAAGGGGGCCUGGAGGUUUGGACUGGGCAGAGCUCAACACAGCGAGGCAAAGUGGCUGUGGCAAGACUGCCUCUCUGGAUUCCUCGUCACUCAGCAGGGCAUCUCUGAGAGAAAUGCC, the self-cleavage stood at 1.07. In the case of UACGUAGGUGGUUUUCCCCUGAUAGUGCUAAGGGGGCCUGGAGGUUUGGACUGGGCAGAGCUCAACACAGCGUGGCAAAGUGGCUGUGGCUAGACUGCCUCUCUGGAUUCCUCGUCACUCAGCAGGGCACCUCUGAGAGUAAUGCC, the self-cleavage was determined as 0.44. As for UACGUAGGUGGUUUUCCCCUGAUAGUGCUAAGGGGGCCUGGAGGUUUGGACAGGGCAGAGCUCAACACAGCGUGGCAAAGUGGCUGUGGCUAGACUGCCUCUCUGGAUUCCUCGUCGCUCAGCAGGGCAUCUCUGAGAGAAAUGCC, the self-cleavage came to 1.2. Consider UACGUAGGUGGUUUUCCCCUGAUAGUGCUAAGGGGGCCUGGAGGUUAGGACUGGGCAGAGCUCAACACAGCGUGGCAAAGUGGCUGUGGCUAGACUGCCUCUCUGGAUUCCUCGUCACUCAGCAGGGCGUCUCUGAGAGAAGUGCC, for which the self-cleavage is 0.53.

Source of the values: the RNAGym collection of RNA variant scans (doi:10.7554/elife.90254).
